For 67 compounds, relative growth results are on record in the supplement of paper PMC9446081.

Structures are written as SMILES. Hit rate of the full screen: of about 39,000 compounds, about 220 (0.56%) showed activity. This is one part of the list.
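Further: static incubation at 37 °C against the wild-type strain, values averaged over two biological replicates.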

This assay has as its system Escherichia coli K-12 BW25113. The assay can be described thus: relative growth (OD600 normalised to plate interquartile mean) (fraction); higher = less growth inhibition, active = 0.2 or less. The note with it: 50 µM; LB; incubation time: overnight (16-24 h).
Take `CCOC(=O)C(CCc1ccccc1)NC(C)C(=O)N1Cc2ccccc2CC1C(=O)O` (configuration not stated): the relative growth was inactive: 0.963. Regarding `C[C@@H]1CN([C@@H](C)CO)C(=O)c2cccc(NC(=O)CCCCCC(=O)Nc3ccccc3N)c2O[C@H]1CN(C)S(=O)(=O)c1cn(C)cn1`, the relative growth is inactive: 1. Consider `N=C1SCCN1CC(=O)O`, for which the relative growth is inactive: 0.992. For `C[C@@H]1CN([C@@H](C)CO)C(=O)Cc2cc(NC(=O)CCCCCC(=O)Nc3ccccc3N)ccc2O[C@@H]1CN(C)Cc1ccc(Cl)c(Cl)c1`, the relative growth was inactive: 0.952. With `N[C@@H](Cc1ccccn1)c1ccccc1` the figure was inactive: 0.969. For `Cc1noc(C)c1NC(=O)N(C)C[C@H]1Oc2ccc(NS(=O)(=O)c3cn(C)cn3)cc2C(=O)N([C@@H](C)CO)C[C@@H]1C`, the relative growth was inactive: 0.996. In the case of `COc1ccc(NC(=O)N(C)C[C@H]2OCc3ccccc3-c3c(n(C)c4ccccc34)C(=O)N([C@H](C)CO)C[C@H]2C)cc1`, the relative growth was inactive: 0.985. With `O=C1CSC(=O)N1` the figure was inactive: 0.998. Take `C[C@H](CO)N1C[C@H](C)[C@H](CN(C)C(=O)Nc2ccc(F)cc2)Oc2ccc(NC(=O)Nc3ccc(C(F)(F)F)cc3)cc2CC1=O`: the relative growth is inactive: 0.969. On to `O=C(C[C@@H]1CC[C@@H]2[C@H](COC[C@H](O)CN2C(=O)Nc2ccc(F)cc2)O1)NCCCN1CCOCC1`, for which the relative growth was inactive: 1.01.

In the case of `COc1ccc(S(=O)(=O)N(C)C[C@H]2OCCCC[C@H](C)Oc3ccc(NS(=O)(=O)c4cn(C)cn4)cc3C(=O)N([C@@H](C)CO)C[C@@H]2C)cc1`, the relative growth was inactive: 1. Regarding `C[C@H]1CN([C@@H](C)CO)C(=O)c2cc(NS(=O)(=O)c3ccccc3)ccc2O[C@@H]1CN(C)C(=O)Nc1cccc2ccccc12`, the relative growth was inactive: 0.997. Then `Cn1cnc(S(=O)(=O)N[C@H]2C=C[C@@H](CC(=O)N3CCN(c4ccccc4)CC3)O[C@H]2CO)c1`, with inactive: 1.02; and `COCCOC(=O)N1C(=O)[C@@]2(c3cc(C#CC4=CCCCC4)ccc31)[C@H](c1ccc(OCCO)cc1)N1[C@H](c3ccccc3)[C@H](c3ccccc3)OC(=O)[C@H]1[C@@H]2C(=O)N1CCc2cc(OC)c(OC)cc2C1`, with inactive: 1.04; and `C[C@H](CO)N1C[C@H](C)[C@H](CN(C)C(=O)c2cnccn2)Oc2cc(C3=CCCC3)ccc2S1(=O)=O`, with inactive: 0.983. As for `NCCCCCCNC(=O)[C@H]1C[C@H]2C(=O)N[C@@H](CCCCN)C(=O)N2[C@H]1c1ccc(O)cc1`, the relative growth is inactive: 1.01. On to `CN(C)CCCN1C(=O)[C@@]2(Cc3ccccc31)c1ccccc1C(=O)N(C1CCCCC1)[C@H]2c1ccc(CO)cc1`, for which the relative growth was inactive: 0.998.

`Cc1cn[nH]c1`: the relative growth was inactive: 1.03. With `CCN1[C@@H]2c3ccc(-c4ccc(C(=O)N(C)C)cc4)c(=O)n3C[C@@H]2[C@@H](CO)[C@@H]1C(=O)NCCOC` the figure was inactive: 0.971. Then `COc1ccccc1CNC(=O)C[C@@H]1C[C@H]2c3cc(NC(=O)C4CCOCC4)ccc3O[C@H]2[C@H](CO)O1`, with inactive: 0.975; and `Cc1ccc(S(=O)(=O)N2C[C@@H](O)COC[C@H]3O[C@@H](CC(=O)N[C@@H]4CCN(Cc5ccccc5)C4)CC[C@@H]32)cc1`, with inactive: 1.01; and `C[C@@H]1CCCCO[C@@H](CN(C)C(=O)Cc2ccccc2)[C@H](C)CN([C@@H](C)CO)C(=O)c2cc(NC(=O)Nc3ccccc3)ccc2O1`, with inactive: 1.02. For `C[C@@H](O)CN(CCN(C[C@@H](C)O)C[C@@H](C)O)C[C@@H](C)O`, the relative growth is inactive: 1.

Turning to `CC(C)(C(=O)O)c1ccc(C(O)CCCN2CCC(C(O)(c3ccccc3)c3ccccc3)CC2)cc1.Cl` (configuration not stated), the relative growth was inactive: 1.2. `Cc1noc(C)c1NC(=O)Nc1ccc2c(c1)CC(=O)N([C@@H](C)CO)C[C@H](C)[C@H](CN(C)C(=O)Nc1cccc3ccccc13)O2`: the relative growth was inactive: 1.01.

As for `C[C@H]1CCCCO[C@@H](CN(C)Cc2ccc(C(F)(F)F)cc2)[C@@H](C)CN([C@@H](C)CO)C(=O)c2cc(NS(C)(=O)=O)ccc2O1`, the relative growth was inactive: 1. As for `CNS(=O)(=O)c1ccc(Cl)c(C(N)=O)c1`, the relative growth is inactive: 1.01. Consider `C[C@@H]1CN([C@H](C)CO)C(=O)CCCn2nncc2CO[C@@H]1CN(C)C(=O)Nc1ccnc(N2CCOCC2)c1`, for which the relative growth was inactive: 0.994.

For the compound `CO/N=C1\CN(c2nc3c(cc2F)c(=O)c(C(=O)O)cn3C2CC2)C[C@@H]1CN`, the relative growth was active: 0.154. As to `COc1ccccc1CNC(=O)C[C@@H]1CC[C@@H]2[C@H](COC[C@H](O)CN2C(=O)Nc2ccc(F)cc2)O1`, the relative growth is inactive: 0.975.

Consider `CC(C)(C)c1ccc(C(=O)Nc2cccc(C(F)(F)F)c2)cc1`, for which the relative growth is inactive: 1.03. In the case of `C[C@@H]1CCCCO[C@H](CN(C)Cc2ccc(C(F)(F)F)cc2)[C@@H](C)CN([C@H](C)CO)C(=O)c2cc(NC(=O)Nc3cccc4ccccc34)ccc2O1`, the relative growth is inactive: 1.06. Regarding `C[C@H]1CN([C@@H](C)CO)C(=O)Cc2cc(NC(=O)CCN3CCOCC3)ccc2O[C@H]1CN(C)CC1CCCCC1`, the relative growth was inactive: 0.995.

Turning to `C[C@@H]1CN([C@@H](C)CO)C(=O)c2cc(C3=CCCCC3)cnc2O[C@H]1CN(C)S(=O)(=O)c1cn(C)cn1`, the relative growth is inactive: 1.01. With `C[C@@H]1CN([C@@H](C)CO)C(=O)Cc2cc(NC(=O)Nc3ccc(C(F)(F)F)cc3)ccc2O[C@H]1CN(C)C(=O)Nc1ccccc1`, the relative growth was inactive: 1.04.

Regarding `C[C@H]1CN([C@@H](C)CO)S(=O)(=O)c2ccc(-c3cncnc3)cc2O[C@@H]1CN(C)C(=O)C1CCCCC1`, the relative growth is inactive: 0.996. With `O=C(C[C@H]1C[C@H]2c3cc(NC(=O)c4ccc5c(c4)OCO5)ccc3O[C@H]2[C@H](CO)O1)NCc1ccccn1` the figure was inactive: 1.06; with `O=C(C[C@@H]1CC[C@@H](NS(=O)(=O)c2ccccc2F)[C@H](CO)O1)NCCCN1CCOCC1`, inactive: 0.976. For the compound `Cc1ccc(S(=O)(=O)N(C)C[C@H]2Oc3cc(C#Cc4ccccc4)ccc3S(=O)(=O)N([C@@H](C)CO)C[C@@H]2C)cc1`, the relative growth is inactive: 1.03.

Regarding `O=C(N[C@H]1CC[C@@H](CC(=O)N2CCOCC2)O[C@@H]1CO)c1ccc2c(c1)OCO2`, the relative growth was inactive: 1. Take `CC(C)NC(=O)N(C)C[C@@H]1Oc2ccc(NS(=O)(=O)c3cn(C)cn3)cc2C(=O)N([C@@H](C)CO)C[C@H]1C`: the relative growth is inactive: 1.

Regarding `CC(C)C#Cc1cnc2c(c1)C(=O)N([C@@H](C)CO)C[C@@H](C)[C@@H](CN(C)C(=O)c1ccc3c(c1)OCO3)O2`, the relative growth is inactive: 0.984.

As for `Cc1noc(C)c1S(=O)(=O)N(C)C[C@H]1Oc2c(NS(=O)(=O)c3ccc(F)cc3)cccc2C(=O)N([C@@H](C)CO)C[C@H]1C`, the relative growth is inactive: 1.01. Take `O=C(C[C@@H]1C=C[C@@H](NC(=O)c2ccc3c(c2)OCO3)[C@H](CO)O1)NCc1ccc(Oc2ccccc2)cc1`: the relative growth was inactive: 1.03. Consider `CN(Cc1cc(Br)cc(Br)c1N)C1CCCCC1.Cl`, for which the relative growth was inactive: 0.832. As for `OCC1OC(OCC2OC(O)C(O)C(O)C2O)C(O)C(O)C1O` (configuration not stated), the relative growth was inactive: 0.929. On to `CC1CCC2C(C)C(OC(=O)CCC(=O)O)OC3OC4(C)CCC1C32OO4` (configuration not stated), for which the relative growth is inactive: 0.895.

`C[C@H](CO)N1C[C@H](C)[C@@H](CN(C)Cc2ccc(Oc3ccccc3)cc2)Oc2c(NS(=O)(=O)c3ccccc3)cccc2C1=O`: the relative growth was inactive: 1.02.

For `C[C@H](CO)N1C[C@H](C)[C@H](CN(C)S(=O)(=O)c2ccc(F)cc2)Oc2c(NS(=O)(=O)c3cccs3)cccc2C1=O`, the relative growth is inactive: 1.01. For `C[C@H]1CCCCO[C@@H](CN(C)S(=O)(=O)c2ccc(Cl)cc2)[C@@H](C)CN([C@@H](C)CO)C(=O)c2cc(NS(=O)(=O)c3ccc(Cl)cc3)ccc2O1`, the relative growth is inactive: 1.01.

Take `Cl.c1ccc2c(CC3=NCCN3)cccc2c1`: the relative growth was inactive: 1.12. As for `O=C1CCC(=O)NCC/C=C/CCN1`, the relative growth was inactive: 1.01. As to `Cc1noc(C)c1S(=O)(=O)N(C)C[C@H]1Oc2ccc(NC(=O)C3CC3)cc2CC(=O)N([C@H](C)CO)C[C@@H]1C`, the relative growth was inactive: 1. Turning to `O=C(O)[C@@H](O)Cc1ccc(O)c(O)c1`, the relative growth is inactive: 0.995. With `O=C(NCCC1=CCCCC1)c1sc2ccccc2c1Cl`, the relative growth is inactive: 1. With `COc1ccc(NC(=O)N(C)C[C@H]2Oc3c(NC(=O)Nc4cccc5ccccc45)cccc3C(=O)N([C@@H](C)CO)C[C@@H]2C)cc1` the figure was inactive: 1.01; with `COC[C@@H](C)NC(=O)C(=O)NC1CC1`, inactive: 0.973. Consider `CN(C)CCN1CCN(C)C2(CCN(S(=O)(=O)C3CC3)CC2)C1=O`, for which the relative growth was inactive: 1.01. For `Cc1noc(C)c1NC(=O)N(C)C[C@@H]1OCCCC[C@@H](C)Oc2ccc(NC(=O)CCCCCC(=O)Nc3ccccc3N)cc2C(=O)N([C@H](C)CO)C[C@@H]1C`, the relative growth is inactive: 1. As to `Cn1c(=O)c(=O)n(C)c2cc(S(=O)(=O)N3CCC[C@@H]3C(=O)O)ccc21`, the relative growth is inactive: 0.99. Regarding `C[C@@H]1CN([C@@H](C)CO)C(=O)c2cc(NC(=O)CCCCCC(=O)Nc3ccccc3N)ccc2O[C@H]1CN(C)C(=O)Nc1ccc(F)cc1`, the relative growth was inactive: 0.989.

Regarding `COCCC(=O)NS(=O)(=O)c1ccccc1`, the relative growth was inactive: 1.01. As to `COc1c(-c2coc3cc4c(cc3c2=O)CC(O)C(C)(C)O4)ccc2c1C=CC(C)(C)O2` (configuration not stated), the relative growth is inactive: 0.821. As for `C[C@H]1CN([C@@H](C)CO)C(=O)Cc2cc(NC(=O)C3CCCCC3)ccc2O[C@H]1CN(C)C(=O)Nc1ccc(C(F)(F)F)cc1`, the relative growth was inactive: 1.01. With `NCCNc1ccc([N+](=O)[O-])c(NCCO)c1`, the relative growth was inactive: 1.01. With `CCOc1nc(N2CCOCC2)nc(N2CCOCC2)n1`, the relative growth is inactive: 1.01. Then `CN(C)CCN1C[C@@H]2CN(C(=O)[C@H]3CCCO3)C[C@H]2C1=O`, with inactive: 0.971.
